Data reported in PubChem BioAssay AID1469 (National Center for Advancing Translational Sciences (NCATS), 2008).
The campaign covered roughly 280,000 compounds. About 180 (0.064%) were called active. Calls follow the shape of the dose curve; as a rule, active = well fitted inhibition curve with a large enough effect; inconclusive = small, poorly fitted or top-dose-only effect, or effect the other way; inactive = flat fitted curve, though single readings scatter. The entries are a selection whose mix differs from that of the whole data set. Some compounds were tested as several samples or in several runs, with calls that do not always agree.

What follows are compounds tested against Thyroid hormone receptor beta (Homo sapiens) (UniProt P10828) (assay: qHTS for Inhibitors of the Interaction of Thyroid Hormone Receptor and Steroid Receptor Coregulator 2). Settings: TRbeta-SRC2 peptide binding, fluorescence polarization, receptor liganded with 1 µM T3; series mostly up to 106 µM; activity change, negative = inhibition: at the top concentration.
Description: NIH Molecular Libraries Probe Production Network [MLPCN]
NIH Chemical Genomics Center [NCGC]
Assay Provider: R. Kip Guy, St. Jude Children's Research Hospital
Thyroid receptor (TR) regulates many homeostatic processes including basal metabolism, cardiovascular function, body weight, and lipid trafficking. TR modulators are potential therapeutics for obesity and hyperlipidemias but current thyroid analogs have undesirable side effects, particularly cardiac stimulation. To identify inhibitors that specifically prevent the interaction of TR with the steroid receptor coregulator 2 (SRC2), a fluorescence polarization assay was screened. This assay detects interaction of the ligand-binding domain of human TRb with a Texas Red labeled SRC2 peptide, corresponding to a 20 amino acid region of the nuclear receptor interaction domain (Arnold et al., 2006). Small molecule inhibitors that block the interaction of TR and SRC2 are detected by a decrease in fluorescence polarization.
Arnold, L. A.; Estebanez-Perpina, E.; Togashi, M.; Shelat, A.; Ocasio, C. A.; McReynolds, A. C.; Nguyen, P.; Baxter, J. D.; Fletterick, R. J.; Webb, P.; Guy, R. K. A high-throughput screening method to identify small molecule inhibitors of thyroid hormone receptor coactivator binding. Sci STKE 2006, p 13.
NCGC Assay Protocol Summary:
For screening, 5 uL/well 0.6 uM TRb and 20 nM SRC2 Texas Red in protein buffer (20mM Tris hydrochloride, 100mM NaCl, 10% glycerol, 1mM EDTA, 0.01% NP-40, 1mM DTT, 1uM T3 and 5% DMSO) was dispensed into black solid 1536-well plates (Grenier) using a solenoid-based dispenser. Following transfer of 23 nL compound or DMSO vehicle by a pin tool, the plates were centrifuged 15 s at 1000 RPM and incubated 5 hr at ambient temperature. The plates were read by an Envision (Perkin Elmer) to detect fluorescence polarization of SRC2 Texas Red (555 nm excitation and 632 nm emission). Data were normalized to unbound (all components except TRb) and bound SRC2 Texas Red controls. In this assay, we provide % activity data for each concentration as well as potencies for the active compounds.
Keywords: NIH Roadmap, MLPCN, MLI, MLSMR, qHTS, NCGC, qHTS, thyroid hormone receptor, steroid receptor coactivator, fluorescence polarization
Also: nearly all actives have a fitted effect of over 50% in size.
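For activity change, negative = inhibition in this document: plate controls were bound peptide for no effect and peptide without receptor for full effect.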
Potency is read from the fitted curve at half-maximal effect.

Chain of UniProt P10828 (P10828 whole entry, looked up): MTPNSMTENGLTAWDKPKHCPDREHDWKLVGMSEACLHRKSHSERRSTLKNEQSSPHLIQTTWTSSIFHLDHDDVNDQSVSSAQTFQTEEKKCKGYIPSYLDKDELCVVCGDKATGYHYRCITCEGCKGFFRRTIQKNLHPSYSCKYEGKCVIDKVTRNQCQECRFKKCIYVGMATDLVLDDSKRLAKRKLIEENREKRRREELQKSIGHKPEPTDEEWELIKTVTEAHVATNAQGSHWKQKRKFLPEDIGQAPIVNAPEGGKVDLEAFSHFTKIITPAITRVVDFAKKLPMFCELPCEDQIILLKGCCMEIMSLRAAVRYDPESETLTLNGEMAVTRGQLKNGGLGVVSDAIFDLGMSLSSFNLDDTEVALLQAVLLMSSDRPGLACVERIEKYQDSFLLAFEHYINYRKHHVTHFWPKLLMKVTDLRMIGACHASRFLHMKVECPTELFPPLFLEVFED

| SMILES | Potency | activity change, negative = inhibition |
| --- | --- | --- |
| Nc1cc(C(=O)O)c(N)c2c1C(=O)c1ccccc1C2=O | active: 39.8 µM |  |
| COc1ccccc1-c1cc(C(=O)NCCc2ccccc2)no1 |  | inactive: 3.93% |
| S=C(S)NCCNC(=S)S |  | inactive: -3.84% [at 201 µM] |
| NC(=O)c1cc(N)ccc1N1CCCC1 | active: 39.8 µM |  |
| O=C(COC(=O)c1c(F)cccc1F)c1ccc[nH]1 | active: 14.1 µM |  |
| COc1ccc(/C=C/C(=O)O)cc1 | active: 25.1 µM |  |
| N[C@@H](COP(=O)(O)O)C(=O)O | inactive |  |
| C[C@H]1[C@@H](O)[C@@H](C)\C=C/C=C\C=C/C=C\C=C/C=C\C=C/[C@@H](O[C@H]2O[C@@H](C)[C@@H](O)[C@@H](N)[C@@H]2O)C[C@@H]2O[C@](O)(C[C@@H](O)C[C@@H](O)[C@@H](O)CC[C@@H](O)C[C@@H](O)CC(=O)O[C@H]1C)C[C@@H](O)[C@H]2C(=O)O (stereo in doubt) |  | inactive: -15.9% [at 53 µM] |
| O=C(O)CCCC[C@@H]1CCSS1 | inactive |  |
| CCc1ccc(NC(=O)c2cc(-c3cccs3)on2)cc1 |  | inactive: 3.71% |
| C[C@@H]1[C@H](O)[C@@H](C)/C=C/C=C/C=C/C=C/C=C/C=C/C=C/[C@H](O[C@@H]2O[C@H](C)[C@@H](O)[C@H](N)[C@@H]2O)C[C@@H]2O[C@](O)(C[C@@H](O)C[C@@H](O)[C@H](O)CC[C@@H](O)C[C@@H](O)CC(=O)O[C@H]1C)C[C@H](O)[C@H]2C(=O)O |  | inactive: 1.66% |
| COc1ccc(/C=C/C(=O)CC(=O)/C=C/c2cccc(O)c2OC)cc1O |  | inactive: 27.3% |
| Nc1cc(-c2ccncc2)c[nH]c1=O | inactive |  |
| O=C(O)CCCCC1CCSS1 (stereo unspecified) | inactive |  |
| CCCCCCCCCCCCCCSCC(=O)O | inactive |  |
| COc1ccc(C2=CC3=C(Br)C(=O)C(C)(OC(=O)C4CCCC4)C(=O)C3=CO2)cc1 (stereo unspecified) |  | inactive: 3.89% |
| COc1cc(/C=C/C(=O)CC(=O)/C=C/c2ccc(O)c(OC)c2)ccc1O | inactive |  |
| O=C1C(SCCO)=C(SCCO)C(=O)c2ccccc21 | inactive |  |
| CC1=C(/C=C/C(C)=C/C=C/C(C)=C\C(=O)O)C(C)(C)CCC1 | inactive |  |
| NCCOB(c1ccccc1)c1ccccc1 | inactive |  |
| Cc1ccc(C2CC(=O)Oc3cc(O)ccc32)cc1 (stereo unspecified) |  | inactive: 0.028% |

| SMILES | Potency | activity change, negative = inhibition |
| --- | --- | --- |
| CC1=C(/C=C/C(C)=C\C=C\C(C)=C\C(=O)O)C(C)(C)CCC1 | inactive |  |
| O=C(O)[C@H]1CN(CCCP(=O)(O)O)CCN1 |  | inactive: -4.18% |
| Oc1ccc(NCc2cccc(OCc3ccc(F)cc3)c2)cc1 | active: 11.2 µM |  |
| CC1=C(CCC(=O)O)c2cc3nc(cc4[nH]c(cc5[nH]c(cc1n2)c(C)c5C(C)O)c(C)c4C(C)O)C(C)=C3CCC(=O)O (stereo unspecified) | active: 35.5 µM |  |
| CN(C)[C@H]1C(=O)C(C(=O)NCN2CCCC2)=C(O)[C@]2(O)C(=O)C3=C(O)c4c(O)cccc4[C@@](C)(O)[C@H]3C[C@@H]12 |  | inactive: -6.8% [at 53 µM] |
| COC1C=CO[C@@]2(C)Oc3c(C)c(O)c4c(O)c(c5c(nc6cc(C)ccn65)c4c3C2=O)NC(=O)/C(C)=C\C=CC(C)C(O)[C@@H](C)C(O)C(C)[C@@H](OC(C)=O)C1C (stereo partly specified) |  | inactive: -5.07% |
| CC(C)CCN(C(=O)Nc1ccccc1)C(C)c1cccs1 (stereo unspecified) |  | inactive: 3.37% |
| CCn1c(CSc2n[nH]c(N)n2)nc2cc(C(=O)O)ccc21 | active: 28.2 µM |  |
| CCCCC1=CC2=CC(=O)C(C)(OC(=O)c3cnc4ccccc4n3)C(=O)C2=CO1 (stereo unspecified) |  | inactive: -1.36% |
| O=C1OC2(c3cc(I)c(O)c(I)c3Oc3c2cc(I)c(O)c3I)c2c(Cl)c(Cl)c(Cl)c(Cl)c21 | active: 25.1 µM |  |
| CCOC(=O)N1CCN(c2cc(NCCC(=O)O)c3c4c(onc24)-c2ccccc2C3=O)CC1 | active: 28.2 µM |  |
| Cc1cc(C)cc(OCC(=O)NCCc2nc3ccccc3[nH]2)c1 |  | inactive: 3.69% [at 53 µM] |
| O=C(O)CCCCCN1C(=O)/C(=C\c2ccncc2)SC1=S |  | inactive: 8.76% |
| O=C1c2ccc(O)c(O)c2C(=O)c2c(O)ccc(O)c21 | active: 25.1 µM |  |
| Oc1c(Cl)cc(Cl)c(Cl)c1Cc1c(O)c(Cl)cc(Cl)c1Cl | inactive |  |
| CCOc1cc(CNc2ccc(O)cc2)ccc1OCc1ccc(Cl)cc1Cl | active: 28.2 µM |  |
| CN(C(=S)Nc1cccnc1)c1ccc(O)cc1 | active: 35.5 µM |  |
| CC1=C(/C=C/C(C)=C/C=C/C(C)=C/C(=O)O)C(C)(C)CCC1 | inactive |  |
| CCN(CC)c1ccc(N=Cc2cc(Br)ccc2O)cc1 | active: 50.1 µM |  |
| N[C@H](COP(=O)(O)O)C(=O)O |  | inactive: -4.4% |
